# According to patent US20250214977A1, “STAT6 INHIBITORS AND USES THEREOF” (Kymera Therapeutics, Inc., priority 2024, published 2025):
# Target: T1, biotinylated truncated STAT6 (123-632)-avi (Homo sapiens, UniProt P42226)
# T1 sequence (P42226 123-632 limits assumed): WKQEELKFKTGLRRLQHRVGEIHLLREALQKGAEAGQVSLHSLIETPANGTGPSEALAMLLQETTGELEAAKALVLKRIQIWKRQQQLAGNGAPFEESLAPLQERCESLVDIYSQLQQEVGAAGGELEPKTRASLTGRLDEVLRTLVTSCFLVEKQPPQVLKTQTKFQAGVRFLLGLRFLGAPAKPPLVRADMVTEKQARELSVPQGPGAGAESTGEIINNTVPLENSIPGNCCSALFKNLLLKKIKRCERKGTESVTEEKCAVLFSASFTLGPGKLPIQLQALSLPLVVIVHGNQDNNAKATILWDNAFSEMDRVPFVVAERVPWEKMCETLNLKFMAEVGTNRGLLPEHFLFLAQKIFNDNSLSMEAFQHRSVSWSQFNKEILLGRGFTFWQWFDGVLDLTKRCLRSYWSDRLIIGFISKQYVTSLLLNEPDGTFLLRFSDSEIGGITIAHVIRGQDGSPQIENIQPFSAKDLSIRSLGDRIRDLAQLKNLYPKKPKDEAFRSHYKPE
# Test: Homogenous Time-Resolved Fluorescence (HTRF) binding assay
# Details: 0.15 nM biotinylated truncated STAT6 (123-632)-avi, 20 nM fluorescein-labeled probe, 30 minutes at room temperature
row,Structure (SMILES),IC50
1,CCc1nc(C)ccc1-c1cc(C(=O)N2Cc3cnn(CC)c3C2)cc2cc(C3=CCCN(C(=O)CCn4ccnn4)C3)n(CC3CC3)c12 [Example I-535],> 100000 nM
2,CCc1cc(C)ncc1-c1cc(C2=CCCN(C(=O)CCn3ccnn3)C2)c(F)c2[nH]c(C(=O)N3CCN(C4CC4)CC3)cc12 [Example I-536],< 100 nM
3,CCc1cc(C)ncc1-c1cc(C2=CCCN(C(=O)CCn3cccn3)C2)c(F)c2[nH]c(C(=O)N3Cc4cnn(CC)c4C3)cc12 [Example I-537],< 100 nM
4,CCc1cc(C)ncc1-c1cc(C2=CCCN(C(=O)CCc3nccs3)C2)c(F)c2[nH]c(C(=O)N3Cc4cnn(CC)c4C3)cc12 [Example I-538],< 100 nM
5,CCc1nc(C)ccc1-c1cc(C(=O)N2CCN(c3ncc(F)cc3OC)CC2)cc2cc(C3=CCCN(C(=O)C(C)C(=O)O)C3)n(CC3CC3)c12 (centres unmarked) [Example I-539],< 100 nM
6,CCc1cn[nH]c1N1CCN(C(=O)c2cc3c(-c4cnccc4OC)cc(C4=CCCN(C(=O)CCn5ccnn5)C4)c(F)c3[nH]2)CC1 [Example I-540],< 100 nM
7,COc1ccccc1-c1cc(C2=CCCN(C(=O)CCn3ccnn3)C2)c(F)c2[nH]c(C(=O)N3Cc4ncn(C)c4C3)cc12 [Example I-541],< 100 nM
8,CCc1cnccc1-c1cc(C(=O)N2CCN(c3ncc(F)cc3OC)CC2)cc2cc(C3=CCCN(C(=O)CCn4ccnn4)C3)n(CC3CC3)c12 [Example I-542],> 100000 nM
9,CCn1nccc1-c1cc(C(=O)N2Cc3cnn(CC)c3C2)cc2cc(C3=CCCN(C(=O)CCn4ccnn4)C3)n(CC3CC3)c12 [Example I-544],< 100 nM
10,CCc1nc(C)ccc1-c1cc(C(=O)N2CCN(c3nc(C)c(F)cc3OC)CC2)cc2cc(C3=CCCN(C(=O)CCn4ccnn4)C3)n(CC3CC3)c12 [Example I-546],> 100000 nM
11,CCc1nc(C)ccc1-c1cc(C(=O)N2CCN(C3CC3)CC2)cc2c(F)c(C3=CCCN(C(=O)CCn4ccnn4)C3)n(CC3CC3)c12 [Example I-548],> 100000 nM
12,CCc1nc(C)ccc1-c1cc(C(=O)N2Cc3cnn(CC)c3C2)c(F)c2cc(C3=CCCN(C(=O)CCn4ccnn4)C3)n(CC3CC3)c12 [Example I-549],> 100000 nM
13,CCc1ccc(-c2cc(C(=O)N3CCN(c4ncc(F)cc4OC)CC3)cc3cc(C4=CCCN(C(=O)C5CC5C(=O)O)C4)n(CC4CC4)c23)c(C)n1 (centres unmarked) [Example I-550],> 100000 nM
14,CNc1ccc(-c2cc(C3=CCCN(C(=O)C4Cc5ccccc5CN4C=O)C3)cc3[nH]c(C(=O)N(C)C)cc23)cc1 (centres unmarked) [Example I-551],< 100 nM
15,COc1ccccc1-c1cc(C2=CCCN(C(C)=O)C2)c(F)c2sc(C(=O)N(C)C)cc12 [Example I-552],100 to 1000 nM
16,COc1ccccc1-c1cc(C2=CCCN(C(C)=O)C2)c(F)c2[nH]c(C(=O)N3CCN(c4ncccc4OC)CC3)cc12 [Example I-553],100 to 1000 nM
17,COc1cnccc1-c1cc(C2=CCCN(C(C)=O)C2)c(F)c2sc(C(=O)N(C)C)cc12 [Example I-554],100 to 1000 nM
18,COc1ccncc1-c1cc(C2=CCCN(C(C)=O)C2)c(F)c2sc(C(=O)N(C)C)cc12 [Example I-555],100 to 1000 nM
19,COc1cccnc1N1CCN(C(=O)c2cc3c(-c4cnccc4OC4CC4)cc(C4=CCCN(C(=O)CCn5ccnn5)C4)c(F)c3[nH]2)CC1 [Example I-556],< 100 nM
20,COc1cccnc1N1CCN(C(=O)c2cc3c(N4CCN(C)CC4)cc(C4=CCCN(C(=O)CCn5ccnn5)C4)c(F)c3[nH]2)CC1 [Example I-557],< 100 nM
21,COc1cccnc1N1CCN(C(=O)c2cc3c(-c4ccccc4OC(F)(F)F)cc(C4=CCCN(C(=O)CCn5ccnn5)C4)c(F)c3[nH]2)CC1 [Example I-558],< 100 nM
22,COc1cc(F)c(F)cc1-c1cc(C2=CCCN(C(=O)CCn3ccnn3)C2)c(F)c2[nH]c(C(=O)N3CCN(c4ncccc4OC)CC3)cc12 [Example I-559],< 100 nM
23,COc1cccnc1N1CCN(C(=O)c2cc3c(-c4cccc(C)c4OC)cc(C4=CCCN(C(=O)CCn5ccnn5)C4)c(F)c3[nH]2)CC1 [Example I-560],< 100 nM
24,CCc1ccncc1-c1cc(C2=CCCN(C(=O)CCn3ccnn3)C2)c(F)c2[nH]c(C(=O)N3CCN(c4ncccc4OC)CC3)cc12 [Example I-561],< 100 nM
25,CCc1ccccc1-c1cc(C2=CCCN(C(=O)CCn3ccnn3)C2)c(F)c2[nH]c(C(=O)N3CCN(c4ncccc4OC)CC3)cc12 [Example I-562],< 100 nM
26,COc1ccncc1-c1cc(C2=CCCN(C(=O)CCn3ccnn3)C2)c(F)c2[nH]c(C(=O)N3CCN(c4cccc(F)c4OC)CC3)cc12 [Example I-563],< 100 nM
27,CCOc1cccnc1N1CCN(C(=O)c2cc3c(-c4cnccc4OC)cc(C4=CCCN(C(=O)CCn5ccnn5)C4)c(F)c3[nH]2)CC1 [Example I-564],< 100 nM

row,Structure (SMILES),IC50
1,COc1ccc(F)cc1-c1cc(C2=CCCN(C(=O)CCn3ccnn3)C2)c(F)c2[nH]c(C(=O)N3CCN(c4ccccc4OC)CC3)cc12 [Example I-566],< 100 nM
2,COc1ccncc1-c1cc(C2=CCCN(C(=O)CCn3ccnn3)C2)c(F)c2[nH]c(C(=O)N3CCN(c4ccccn4)C(C)C3)cc12 (centres unmarked) [Example I-568],< 100 nM
3,COc1cccnc1N1CCN(C(=O)c2cc3c(C4=C(C)CCCC4)cc(C4=CCCN(C(=O)CCn5ccnn5)C4)c(F)c3[nH]2)CC1 [Example I-569],< 100 nM
4,COc1cc(C)ncc1-c1cc(C2=CCCN(C(=O)CCn3ccnn3)C2)c(F)c2[nH]c(C(=O)N3CCN(c4ncccc4OC)CC3)cc12 [Example I-570],< 100 nM
5,COc1cccnc1N1CCN(C(=O)c2cc3c(-c4nc(C)[nH]c4C)cc(C4=CCCN(C(=O)CCn5ccnn5)C4)c(F)c3[nH]2)CC1 [Example I-572],< 100 nM
6,COc1cccnc1N1CCN(C(=O)c2cc3c(-c4ccccc4C#N)cc(C4=CCCN(C(=O)CCn5ccnn5)C4)c(F)c3[nH]2)CC1 [Example I-573],< 100 nM
7,COc1cccnc1N1CCN(C(=O)c2cc3c(-c4cn(C)nc4C)cc(C4=CCCN(C(=O)CCn5ccnn5)C4)c(F)c3[nH]2)CC1 [Example I-574],< 100 nM
8,COc1cccnc1N1CCN(C(=O)c2cc3c(-c4ccc(C#N)cn4)cc(C4=CCCN(C(=O)CCn5ccnn5)C4)c(F)c3[nH]2)CC1 [Example I-575],< 100 nM
9,COc1cccnc1N1CCN(C(=O)c2cc3c(-c4ccc5ncccc5c4OC)cc(C4=CCCN(C(=O)CCn5ccnn5)C4)c(F)c3[nH]2)CC1 [Example I-577],< 100 nM
10,COc1cccnc1N1CCN(C(=O)c2cc3c(-n4ccc5ccccc54)cc(C4=CCCN(C(=O)CCn5ccnn5)C4)c(F)c3[nH]2)CC1 [Example I-578],< 100 nM
11,CNc1ccc(-c2cc(C3=CCCN(C(=O)CCn4ccnn4)C3)c(F)c3[nH]c(C(=O)N4CCN(c5ncccc5OC)CC4)cc23)c(OC)c1 [Example I-580],< 100 nM
12,COc1cccnc1N1CCN(C(=O)c2cc3c(-c4cc(C#N)ccn4)cc(C4=CCCN(C(=O)CCn5ccnn5)C4)c(F)c3[nH]2)CC1 [Example I-581],< 100 nM
13,CCn1nccc1-c1cc(C2=CCCN(C(=O)CCn3ccnn3)C2)c(F)c2[nH]c(C(=O)N3CCN(c4ncccc4OC)CC3)cc12 [Example I-582],< 100 nM
14,COc1cccnc1N1CCN(C(=O)c2cc3c(-c4ccc(OC)c5c4OCCO5)cc(C4=CCCN(C(=O)CCn5ccnn5)C4)c(F)c3[nH]2)CC1 [Example I-583],> 100000 nM
15,COc1cccnc1N1CCN(C(=O)c2cc3c(C4CCN(C)C4)cc(C4=CCCN(C(=O)CCn5ccnn5)C4)c(F)c3[nH]2)CC1 (centres unmarked) [Example I-585],< 100 nM
16,COc1cccnc1N1CCN(C(=O)c2cc3c(-n4nc(C)cc4C)cc(C4=CCCN(C(=O)CCn5ccnn5)C4)c(F)c3[nH]2)CC1 [Example I-586],< 100 nM
17,COc1ccncc1-c1cc(C2=CCCN(C(=O)CCn3ccnn3)C2)c(F)c2[nH]c(C(=O)N3CCN(C4CC4)CC3)cc12 [Example I-587],< 100 nM
18,COc1cc(F)ccc1-c1cc(C2=CCCN(C(=O)CCn3ccnn3)C2)c(F)c2[nH]c(C(=O)N3CCN(C4CC4)CC3)cc12 [Example I-588],< 100 nM
19,COc1cccc(N2CCN(C(=O)c3cc4c(-c5ccc(F)cc5OC)cc(C5=CCCN(C(=O)CCn6ccnn6)C5)c(F)c4[nH]3)CC2)n1 [Example I-589],< 100 nM
20,COc1cccc(N2CCN(C(=O)c3cc4c(-c5cc(F)c(F)cc5OC)cc(C5=CCCN(C(=O)CCn6ccnn6)C5)c(F)c4[nH]3)CC2)n1 [Example I-590],< 100 nM
21,COc1cccc(N2CCN(C(=O)c3cc4c(-c5cc(F)cc(F)c5OC)cc(C5=CCCN(C(=O)CCn6ccnn6)C5)c(F)c4[nH]3)CC2)n1 [Example I-591],< 100 nM
22,COc1cccnc1N1CCN(C(=O)c2cc3c(N4CCCOCC4)cc(C4=CCCN(C(=O)CCn5ccnn5)C4)c(F)c3[nH]2)CC1 [Example I-592],< 100 nM
23,COc1cnccc1-c1cc(C2=CCCN(C(=O)CCn3ccnn3)C2)c(F)c2[nH]c(C(=O)N3CCN(c4ncccc4OC4CC4)CC3)cc12 [Example I-593],< 100 nM
24,COc1cc(F)ccc1-c1cc(C2=CCCN(C(=O)CCn3ccnn3)C2)c(F)c2[nH]c(C(=O)N3CCN(c4ncccc4OC4CC4)CC3)cc12 [Example I-594],< 100 nM
25,COc1ncccc1-c1cc(C2=CCCN(C(=O)CCn3ccnn3)C2)c(F)c2[nH]c(C(=O)N3CCN(c4ncccc4OC4CC4)CC3)cc12 [Example I-595],< 100 nM
26,COc1cc(F)c(F)cc1-c1cc(C2=CCCN(C(=O)CCn3ccnn3)C2)c(F)c2[nH]c(C(=O)N3CCN(c4ncccc4OC4CC4)CC3)cc12 [Example I-596],< 100 nM
